# Measured values taken from PMC7819943, “Rice protein-binding microarrays: a tool to detect cis-acting elements near promoter regions in rice”.
# The other results are listed elsewhere or left out.
# Biological target: T1, OsWOX13 (Oryza sativa, UniProt Q5QMM3 1-267)
# T1 sequence: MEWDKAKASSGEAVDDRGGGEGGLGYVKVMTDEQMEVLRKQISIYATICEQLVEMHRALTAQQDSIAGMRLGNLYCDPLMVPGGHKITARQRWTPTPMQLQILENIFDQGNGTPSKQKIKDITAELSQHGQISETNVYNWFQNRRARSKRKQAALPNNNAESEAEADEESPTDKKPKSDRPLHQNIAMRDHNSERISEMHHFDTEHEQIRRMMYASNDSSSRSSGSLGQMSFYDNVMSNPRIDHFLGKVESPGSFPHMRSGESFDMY
# Assay: protein-binding microarray (RPBM); PBS, 2% BSA, 51.3 ng/ul salmon testes DNA, 50 uM zinc acetate, 200 nM TF, 25 C, 1 h; high values mean tight binding
# Details: protein: recombinant; tags: N-terminal polyhistidine and DsRed monomer fusion (pET32a); label: CyDye5-dUTP incorporated in the synthesized complementary strand; 3' TTTTT single-stranded linker to array surface; dsDNA, one strand shown
# In short: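 Ni–NTA purification followed expression in E. coli BL21-CodonPlus of transcription factors fused N-terminally to a polyhistidine tag and DsRed. At 200 nM in PBS with 2% BSA, salmon testes DNA and 50 µM zinc acetate, the protein was incubated for 1 h at 25 °C with a custom Agilent array that had been primer-extended with Cy5-dUTP and blocked with 2% BSA. After washing, the array was read on an Axon 4000B scanner. The binding signal is per-feature fluorescence intensity in arbitrary units.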
row,Sequence,binding signal
1,ATCCAAATCAACGGTCCAACATTACTTGCCAGTTAGCCACCGGAGTCACCTAGTGCAG,3320 fluorescence intensity (a.u.)
2,TCTAATTTTGTTGTGGATGTAAATCTTGTGCCTTCTTAAACGGAGTCACCTAGTGCAG,5910 fluorescence intensity (a.u.)
3,TTTTATAATTTATTCAAATAGTACATTATTTATAATGAGTCGGAGTCACCTAGTGCAG,13000 fluorescence intensity (a.u.)
4,ACTCAATAATTTTCTTTTCACGAACTAAACCAGGCCTTAGCGGAGTCACCTAGTGCAG,6340 fluorescence intensity (a.u.)
5,AGTTGAAAATGTGGGTCAATTATCCCTCTAAATGTGGGTGCGGAGTCACCTAGTGCAG,3230 fluorescence intensity (a.u.)
6,ATCTGATTTGATTTGATTTCGTACACCAGTAGCTTCAACCCGGAGTCACCTAGTGCAG,59800 fluorescence intensity (a.u.)
7,CATAGATTTCTAATTATTGTTTGCAAGTGAAAATTTAGACCGGAGTCACCTAGTGCAG,29700 fluorescence intensity (a.u.)
8,TTGTGACCCAAATTGACTATGTGATCTTGAAGAGTTGTGTCGGAGTCACCTAGTGCAG,10100 fluorescence intensity (a.u.)
9,TCCGTGATTAATGAAATCATCGCGTTGAGCTAATCTCGCTCGGAGTCACCTAGTGCAG,23400 fluorescence intensity (a.u.)
10,GAGATTGGAAATGATCGAATTGTTCCGGCAGCGTGGCAGCCGGAGTCACCTAGTGCAG,20900 fluorescence intensity (a.u.)
11,ATATGTGGGGTGATTGCTGGTTGATCCGTGCCCCGGGTGTCGGAGTCACCTAGTGCAG,6620 fluorescence intensity (a.u.)
12,GGGCCTGTTAATTAGGCTTAACCAAGTCTGAATCTTACTTCGGAGTCACCTAGTGCAG,5300 fluorescence intensity (a.u.)
13,TGGCTAACCTTAAATTTGTTAGTGGGATGGGGCAGATGGACGGAGTCACCTAGTGCAG,3610 fluorescence intensity (a.u.)
14,CGCATCTGTCAAACTGTCAATGTGTCATTATATTGTGTGTCGGAGTCACCTAGTGCAG,3520 fluorescence intensity (a.u.)
15,AACTGATTTTGTGAGTAGAATTGTGACAAACTCAACGACACGGAGTCACCTAGTGCAG,12400 fluorescence intensity (a.u.)
16,TCAAATTTGCGTTGTGACAACTTTTCTTAAGAAATACACTCGGAGTCACCTAGTGCAG,9000 fluorescence intensity (a.u.)
17,ATTAAGAGATTACTAATCTACACTTTAAAATAAACGGTCGCGGAGTCACCTAGTGCAG,4430 fluorescence intensity (a.u.)
18,TTCCTGATTAACCGGATGAAACGGGAAGCTGCTAGTTTGTCGGAGTCACCTAGTGCAG,22000 fluorescence intensity (a.u.)
19,CCAACTTCTGTCAATCTAATATCAGAAGTTCAGAACAAAGCGGAGTCACCTAGTGCAG,8780 fluorescence intensity (a.u.)
20,CTCCTAAATTTAATATTAATATATAAAGCTGTATATAAAACGGAGTCACCTAGTGCAG,7880 fluorescence intensity (a.u.)
21,AGCTTAAATTTAACTCTAAGAGTGGGTCTAAAGTGAAGATCGGAGTCACCTAGTGCAG,4970 fluorescence intensity (a.u.)
22,CTTATCACATACAGCTGATTATCATTAAACTCCTAACTTCCGGAGTCACCTAGTGCAG,7410 fluorescence intensity (a.u.)
23,CTAAATTACCTAGAAAATGCTTTTAAATGATAAATGGGCCCGGAGTCACCTAGTGCAG,22100 fluorescence intensity (a.u.)
